Source: PubChem BioAssay AID488969 (Vanderbilt High Throughput Screening Facility, 2010)
The full ranking holds about 110,000 compounds; the median of “z-score” is about -0.1, and the highest 2% start at about 2. The list shows a part of the results. Calls of active or inactive are those of the source.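 How the source made its calls: active means z-score in the third read window above 3 or below -3; inactive means the rest.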

These compounds were tested against Metabotropic glutamate receptor 8 (Rattus norvegicus) (UniProt P70579) (assay: rat mGluR8 modulators via GIRK flux, primary screen, cell-based, thallium flux, HTS (AID 488969)). Conditions: HEK293 rat mGluR8, GIRK (G protein-gated inwardly rectifying potassium channel) thallium flux, FluoZin2; at 10 µM; stronger effect = higher value; submaximal glutamate (EC20) added with thallium.
Sequence of UniProt P70579 (P70579 whole entry, looked up): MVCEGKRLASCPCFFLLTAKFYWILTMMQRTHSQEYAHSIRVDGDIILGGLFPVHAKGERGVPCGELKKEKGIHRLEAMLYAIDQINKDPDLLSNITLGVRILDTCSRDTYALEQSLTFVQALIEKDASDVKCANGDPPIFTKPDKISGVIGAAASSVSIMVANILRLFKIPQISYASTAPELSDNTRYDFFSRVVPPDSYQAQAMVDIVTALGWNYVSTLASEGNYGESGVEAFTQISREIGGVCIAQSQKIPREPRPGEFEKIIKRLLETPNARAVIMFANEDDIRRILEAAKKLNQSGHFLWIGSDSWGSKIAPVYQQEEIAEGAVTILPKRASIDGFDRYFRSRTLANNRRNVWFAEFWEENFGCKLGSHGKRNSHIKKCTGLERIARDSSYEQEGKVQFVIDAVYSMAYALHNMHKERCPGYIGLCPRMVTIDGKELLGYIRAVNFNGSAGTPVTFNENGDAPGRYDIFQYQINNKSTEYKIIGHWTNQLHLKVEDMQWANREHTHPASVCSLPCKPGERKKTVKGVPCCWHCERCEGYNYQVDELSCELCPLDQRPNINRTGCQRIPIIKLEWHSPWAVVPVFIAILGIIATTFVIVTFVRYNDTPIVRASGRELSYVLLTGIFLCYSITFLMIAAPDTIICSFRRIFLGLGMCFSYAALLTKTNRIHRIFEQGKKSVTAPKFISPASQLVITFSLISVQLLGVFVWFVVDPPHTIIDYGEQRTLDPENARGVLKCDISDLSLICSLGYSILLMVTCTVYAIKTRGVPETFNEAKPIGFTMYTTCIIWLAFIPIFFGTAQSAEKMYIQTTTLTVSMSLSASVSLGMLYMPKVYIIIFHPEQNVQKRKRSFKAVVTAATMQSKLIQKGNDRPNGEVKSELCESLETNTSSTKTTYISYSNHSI

| SMILES | z-score |
| --- | --- |
| Cc1cc(C)n2nc(SCC#N)nc2n1 | 0.677 |
| CCNC(=S)N/N=C/c1ccc(-c2ccccc2)o1 | 1.09 |
| COc1ccc(/C=C/C(=O)Nc2ccc(OC)cc2[N+](=O)[O-])cc1 | -0.114 |
| COc1ccccc1NS(=O)(=O)c1ccc(O)c(C(N)=O)c1 | 0.169 |
| CCOC(=O)c1c(C)n(C)c2c(C)cc(O)c(OC(C)=O)c12 | -0.208 |
| CC(=O)c1cccc(NC(=O)CN(c2ccccc2F)S(C)(=O)=O)c1 | 0.542 |
| CCOc1ccccc1NS(=O)(=O)c1ccc(OC)c(OC)c1 | 0.133 |
| O=C(NC(=S)N1CCCc2ccccc21)c1ccc([N+](=O)[O-])cc1 | active: 14.7 |
| CCn1nc(NC(=O)c2ccccn2)c2cc3cc(C)ccc3nc21 | -0.417 |
| Cc1nc(N)sc1C(=O)N/N=C/c1c[nH]c2ccccc12 | -0.225 |
| O=C(OCc1nnc(-c2ccccc2)o1)C1CCN(S(=O)(=O)c2cccs2)CC1 | -1.37 |
| Nc1ccc(C23CC4CC(CC(CO)(C4)C2)C3)cc1 | -0.181 |
| CSc1ncccc1C(=O)Nc1nc2ccc(Oc3ccccc3)cc2s1 | 0.375 |
| COc1ccc(-c2nc3nc(C)cc(=O)n3[nH]2)cc1 | 0.297 |
| Cc1ccc(OCC(=O)Nc2cccc3nsnc23)c(C)c1 | -0.0948 |
| Clc1ncnc2c1oc1ccccc12 | -0.839 |
| CC1CC(C)CN(CC(=O)N2CCc3[nH]c4ccccc4c3C2)C1 (stereo not given) | 1.47 |
| Clc1ccc2c(c1)-c1nnc(Br)n1-c1ccccc1S2 | active: -4.38 |
| Cc1ccc(NC(=O)C2CCN(C(=O)c3ccccc3C)CC2)cc1 | -0.23 |
| Cc1ccc(/C=N/N2CCN(c3ccc(Cl)cc3)CC2)o1 | 0.0242 |
| CCOc1ccc(C(=O)N/N=C/c2ccc(SC)cc2)cc1 | -0.152 |
| CC(=O)N(C(C)=O)c1ncc2c([nH]c3ccccc32)c1C#N | 0.191 |
| COC(=O)c1cccc(NC(=O)c2cccnc2)c1 | -0.146 |

| SMILES | z-score |
| --- | --- |
| O=C(NCCN1CCOCC1)NC1(C(F)(F)F)Oc2ccc(Cl)cc2O1 (stereo not given) | -0.113 |
| O=C1COc2ccc(C(=O)CSc3nnc(Cc4cccs4)n3-c3ccccc3)cc2N1 | -1.26 |
| Cc1cc(OCCn2ccnc2)ccc1C(C)C | 0.0872 |
| Nc1nc(Nc2ccccc2)nc(NCc2ccco2)c1[N+](=O)[O-] | active: 4.24 |
| CCCN1C(=O)/C(=C/c2ccc(C)o2)SC1=Nc1ccc(OC)cc1 | -0.136 |
| CC1(C)Cc2c(sc3ncn4nc(-c5ccco5)nc4c23)CO1 | -0.0471 |
| CN(C)S(=O)(=O)c1ccc(NC(=O)C2CC3C=CC2C3)cc1 (stereo not given) | -0.0958 |
| O=C(COC(=O)Cn1cnc2ccccc21)Nc1ccc2c(c1)OCCO2 | 0.53 |
| CNC(=O)/C(C#N)=c1\s/c(=C/C(=O)OC)c(=O)n1-c1ccccc1 | -0.622 |
| O=C(Oc1ccccc1)c1ccc2nccnc2c1 | 0.521 |
| COc1ccc(-c2nc(-c3ccccc3)[nH]c(=O)c2C#N)cc1 | -0.382 |
| C=CCn1c(SC2CCOC2=O)nc2sc(CC)cc2c1=O (stereo not given) | -1.82 |
| NC(=O)C1CCN(CC(=O)c2c[nH]c3ccc(F)cc23)CC1 | 1.14 |
| O=C(c1cccc2ccccc12)n1nnc2ccccc21 | 0.0407 |
| Nc1c(S(=O)(=O)c2ccccc2)c2nc3ccccc3nc2n1/N=C/c1ccco1 | -1.22 |
| O=C(NCc1nnc(SCC(=O)N2CCC(Cc3ccccc3)CC2)o1)c1ccccc1F | -0.616 |
| CCOc1ccc2nc(SCc3cccc(C)c3)nc(C)c2c1 | -0.0646 |
| CC(C)C(=O)Nc1ncc(C(F)(F)F)cc1Cl | -0.565 |
| CC1CCCC(C)N1C(=O)CSc1nnc(NC(=O)Cc2cccs2)s1 (stereo not given) | -1.05 |
| CC1CCCCN1c1nnc(NC(=O)c2cc(-c3ccc(Br)cc3)on2)s1 (stereo not given) | -0.71 |
| COc1ccc(N=C(C)C2=C(O)CSC2=O)cc1 | 0.00819 |
| CCCN(CCC)CC(O)CN(c1ccccc1)S(=O)(=O)c1ccc(C)cc1 (stereo not given) | 0.182 |
| O=c1nc(N2CCCCC2)nc(Nc2ccccc2)[nH]1 | -0.386 |

| SMILES | z-score |
| --- | --- |
| COc1ccc(C(C(=O)Nc2ccc(C(C)C)cc2)N(C)C(=O)CNC(C)=O)cc1 (stereo not given) | -0.0615 |
| Nc1nnn(Cc2ccccc2)n1 | 0.0628 |
| Cc1cccc(C(=O)Nc2ccc(NC(=O)Cc3ccc(Cl)cc3)cc2)c1 | -0.0593 |
| CC1CN(c2nc3ccccc3nc2C(C#N)C(=O)OC2CCCCC2)CC(C)O1 (stereo not given) | -1.35 |
| O=C(NCc1cccs1)c1cc2c(s1)CS(=O)(=O)C2 | 0.722 |
| Cc1ccn2cc(CCNC(=O)CC(C)(C)C)nc2c1 | -0.434 |
| CC(NC(=O)Cc1ccc(F)cc1)C(c1cccs1)N1CCN(C)CC1 (stereo not given) | 1.17 |
| CCCC(c1nnnn1CCc1ccccc1)N1CCN(C2CCCC2)CC1 (stereo not given) | -0.168 |
| Cc1cc(C)nc(SCc2nc3nc(C)cc(C)n3c2Br)n1 | -0.879 |
| O=C(c1cn(-c2ccccc2)nc1-c1ccc(Cl)s1)N1CCOCC1 | -0.311 |
| O=C(CSc1ncnc2scc(-c3ccccc3)c12)N1CCN(Cc2ccc3c(c2)OCO3)CC1 | 0.256 |
| CN(C)C(=O)CSc1nnc(-c2cccnc2)n1-c1ccccc1 | -0.185 |
| CCN1CCN(Cc2ccccc2NC(=O)Nc2ccc(C)cc2)CC1 | 0.088 |
| O=C(NCC1COCCO1)C1CCN(S(=O)(=O)c2ccccc2)CC1 (stereo not given) | -0.979 |
| O=C1C/C(=C/NCc2ccccc2)C(=O)N1 | -0.148 |
| Cc1cccc(NC(=O)CCC(=O)N/N=C/c2ccco2)c1 | 0.372 |
| COc1ccccc1C(=O)C1Nc2ccccc2-c2nnc(SC)nc2O1 (stereo not given) | -1.1 |
| CCCOc1cccc(C(=O)N(Cc2ccco2)C2CCS(=O)(=O)C2)c1 (stereo not given) | 0.188 |
| COc1ccc(Oc2ccc(N/C=C3/CCCC3=O)cc2)cc1 | -0.315 |
| CCSC1=N/C(=C\c2cccnc2)C(=O)N1c1ccccc1 | 0.105 |
| O=C(/C=C/c1cccc([N+](=O)[O-])c1)NC1CC2CCC1C2 (stereo not given) | -0.175 |
| Cc1sc2nc(CN3CCCC3)nc(Cl)c2c1C | -0.0264 |
| O=C(NCc1ccc2c(c1)OCO2)c1cccc(S(=O)(=O)N2CCCCC2)c1 | -1.37 |

| SMILES | z-score |
| --- | --- |
| O=C(Nc1nccc(-c2cccs2)n1)c1cccs1 | -0.00264 |
| COc1ccc(-c2nc3c(n2O)CCCC3=O)cc1OC | -2.03 |
| Cc1cc(NC(=O)C2CC(=O)OC2c2ccccc2)no1 (stereo not given) | -0.759 |
| Cc1ccc2[nH]c(=O)c(CN(CCCN(C)C)C(=O)Nc3cccc(Cl)c3)cc2c1 | 0.323 |
| Cc1ccc(N2C(=O)C(Cl)=C(N3CCOCC3)C2=O)cc1Cl | -0.0801 |
| Cc1ccccc1CSCCNC(=O)COc1ccc(Cl)cc1 | 0.0526 |
| O=C(CN(C(=O)Cn1nnc(-c2cccs2)n1)c1ccc2c(c1)OCCO2)NCc1ccccc1 | -0.285 |
| CC(C)NC(=O)COc1ccc(Cl)cc1Cl | 0.189 |
| Cc1cc(C)n2nc(S(=O)(=O)NC3CCCCC3)nc2n1 | -0.0512 |
| CSc1ccccc1NC(=O)CN(Cc1ccccc1)S(C)(=O)=O | 0.0694 |
| CC(C)CC(=O)NC(=S)Nc1cc(C(F)(F)F)ccc1N1CCOCC1 | -0.0669 |
| CCOC(=O)c1ccccc1NC(=O)C(C)Oc1ccccc1 (stereo not given) | -0.886 |
| COc1ccccc1Nc1nc(N)nc(CN(C)C2CCCCC2)n1 | -0.0931 |
| CCc1nnc(NC(=O)C=C(C)C)s1 | 0.0557 |
| CCSc1nc2ccc(N3C(=O)C4C5C=CC(C5)C4C3=O)cc2s1 (stereo not given) | -0.716 |
| O=C(CCC1COc2ccccc2O1)NC1CCCCC1 (stereo not given) | -0.137 |
| CCOc1ccc(-n2ccnc2SCC(=O)Nc2nnc(CC)s2)cc1 | 0.544 |
| CCc1nc(C)cn1S(=O)(=O)c1ccc(Cl)c(Cl)c1Cl | -0.112 |
| O=c1ccc2cc3c([nH]c4ccc(Br)cc43)oc-2c1O | 0.498 |
| Fc1ccc(-c2ccnc3nc(-n4cccc4)nn23)cc1 | -0.783 |
| Cc1ccc2c(Cl)c(C(=O)NCC3CCCO3)sc2c1 (stereo not given) | -0.23 |
| COc1cc(C2C(C#N)=C(N)Oc3c2ccc2ccccc32)ccc1OCC(=O)Nc1cccc(C)c1 (stereo not given) | -0.227 |
| CCCCNC(=S)Nc1cc([N+](=O)[O-])ccc1C | 0.706 |

| SMILES | z-score |
| --- | --- |
| O=C(NCCc1csc(-c2ccc(C(F)(F)F)cc2)n1)c1cccs1 | -0.803 |
| N#CC1=C(S)N(c2ccc(F)cc2)C(c2cccs2)NC1=O (stereo not given) | -0.67 |
| COc1ccc(-n2cnc3c(sc4nccc(N(C)C)c43)c2=O)cc1 | -0.816 |
| O=C1N=C2SCCN2/C1=C\c1ccc(Cl)cc1 | -0.672 |
| O=C(NC(=S)Nc1nc2c(s1)CSc1ccccc1-2)c1ccccc1 | 0.384 |
| CCCCOC(=O)CN1C(=O)c2ccc(C(=O)OCCCC)cc2C1=O | -0.415 |
| CC(=O)Nc1nc(C)nc(-c2ccccc2OC(C)=O)n1 | -0.381 |
| CCCC(=O)NCc1nc2ccccc2n1C | -0.196 |
| Cc1cc(=O)[nH]c(SCC(=O)C23CC4CC(CC(C4)C2)C3)c1C#N | -0.0485 |
| COc1ccccc1CNC(=O)c1c(N)n(CCCN2CCOCC2)c2nc3ccccc3nc12 | 1.66 |
| COc1ccccc1C(=O)Nc1ccc(OCc2nnc3c4ccccc4c(C)nn23)cc1 | -0.0364 |
| COc1ccc(C2NC(=S)NC(C)=C2C(=O)c2ccccc2)cc1OC (stereo not given) | -0.00465 |
| COc1ccc(C(C(=O)Nc2ccc(F)cc2)N(C(=O)Cn2nnc3ccccc32)C2CC2)cc1 (stereo not given) | -0.197 |
| CC(C)Oc1ccc(C2CC(=O)N(c3cccc(C(=O)O)c3)C2=O)cc1 (stereo not given) | 0.682 |
| Fc1ccccc1OCCCCCCN1CCCC1 | -0.000634 |
| Cc1cccc(-n2c(Cc3cc(=O)[nH]c(=O)[nH]3)nnc2SCC(=O)NCc2ccco2)c1 | -0.581 |
| COc1ccc(/C=C(/C#N)C(=O)Nc2ccc(C)cc2C)cc1C(=O)O | 0.129 |
| CCOc1ccc(NC(=O)CSc2nnc(C34CC5CC(CC(C5)C3)C4)n2C)cc1 | -0.136 |
| COc1ccc(-c2csc(NC(=O)c3cccc(S(=O)(=O)N4CCN(C)CC4)c3)n2)cc1 | 0.203 |
| Cn1c(=O)cc(SCC(=O)NCCC2=CCCCC2)c2ccc(Cl)cc21 | -0.0516 |
| CCOC(=O)CSC1=NC(=O)CS1 | 0.159 |
| c1ccc(CCNc2ncnc3scc(C4COc5ccccc5O4)c23)cc1 (stereo not given) | -0.657 |
| CCOc1ccc(C(=O)c2ccncc2)cc1 | -0.477 |
